Reference: the supplement of paper PMC8728848
The other results are listed elsewhere or left out.

Key:
Assay in all cases: glycan array binding signal (z-score within array); higher = stronger binding
Conditions in all cases: glycan notation: IUPAC condensed, linker removed
[1] = molecular target: Gal(b1-2)Gal
Outline: (§1)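 The binding signal is a Z-score computed within each array. Data were drawn from 3228 arrays in the Consortium for Functional Glycomics database, restricted to those with a known protein sequence. Scores were averaged over arrays of the same protein sequence at different concentrations or buffers, and over linkers, and negative values can be taken as non-binding.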

[2] = molecular target: Gal(b1-3)Gal
Outline: as §1

[3] = molecular target: Gal(b1-3)Gal(b1-4)GlcNAc
Outline: as §1

[4] = molecular target: Gal(b1-3)GalNAc
Outline: as §1

[5] = molecular target: Gal(b1-3)GalNAc(b1-3)Gal(a1-4)Gal(b1-4)Glc
Outline: as §1

[6] = molecular target: Gal(b1-3)GalNAc(b1-4)Gal(b1-4)Glc
Outline: as §1

[7] = molecular target: Gal(b1-3)GalNAc(b1-4)[Neu5Ac(a2-3)]Gal(b1-4)Glc
Outline: as §1

[8] = molecular target: Gal(b1-3)GlcNAc
Outline: as §1

[9] = molecular target: Gal(b1-3)GlcNAc(b1-2)Man(a1-3)[Gal(b1-3)GlcNAc(b1-2)Man(a1-6)]Man(b1-4)GlcNAc(b1-4)GlcNAc
Outline: as §1

[10] = molecular target: Gal(b1-3)GlcNAc(b1-3)Gal(b1-3)GlcNAc
Outline: as §1

[11] = molecular target: Gal(b1-3)GlcNAc(b1-3)Gal(b1-4)Glc
Outline: as §1

[12] = molecular target: Gal(b1-3)GlcNAc(b1-3)Gal(b1-4)GlcNAc
Outline: as §1

[13] = molecular target: Gal(b1-3)[Fuc(a1-4)]GlcNAc
Outline: as §1

[14] = molecular target: Gal(b1-3)[Fuc(a1-4)]GlcNAc(b1-3)Gal(b1-3)[Fuc(a1-4)]GlcNAc
Outline: as §1

[15] = molecular target: Gal(b1-3)[Fuc(a1-4)]GlcNAc(b1-3)Gal(b1-4)GlcNAc
Outline: as §1

[16] = molecular target: Gal(b1-3)[Fuc(a1-4)]GlcNAc(b1-3)Gal(b1-4)[Fuc(a1-3)]GlcNAc
Outline: as §1

[17] = molecular target: Gal(b1-3)[GlcNAc(b1-6)]GalNAc
Outline: as §1

[18] = molecular target: Gal(b1-3)[Neu5Ac(a2-6)]GalNAc
Outline: as §1

[19] = molecular target: Gal(b1-3)[Neu5Ac(a2-6)]GlcNAc(b1-6)Gal(b1-4)Glc
Outline: as §1

[20] = molecular target: Gal(b1-3)[Neu5Ac(b2-6)]GalNAc
Outline: as §1

[21] = molecular target: Gal(b1-4)GalNAc(a1-3)[Fuc(a1-2)]Gal(b1-4)GlcNAc
Outline: as §1

[22] = molecular target: Gal(b1-4)GalNAc(b1-3)[Fuc(a1-2)]Gal(b1-4)GlcNAc
Outline: as §1

[23] = molecular target: Gal(b1-4)Glc
Outline: as §1

[24] = molecular target: Gal(b1-4)Glc6S
Outline: as §1

[25] = molecular target: Gal(b1-4)GlcNAc
Outline: as §1

[26] = molecular target: Gal(b1-4)GlcNAc(a1-6)Gal(b1-4)GlcNAc
Outline: as §1

[27] = molecular target: Gal(b1-4)GlcNAc(b1-2)Man(a1-3)[Gal(b1-4)GlcNAc(b1-2)Man(a1-6)]Man(b1-4)GlcNAc(b1-4)GlcNAc
Outline: as §1

[28] = molecular target: Gal(b1-4)GlcNAc(b1-3)Gal(b1-3)GlcNAc
Outline: as §1

[29] = molecular target: Gal(b1-4)GlcNAc(b1-3)Gal(b1-4)Glc
Outline: as §1

[30] = molecular target: Gal(b1-4)GlcNAc(b1-3)Gal(b1-4)GlcNAc
Outline: as §1

B1: MCI4 (Toxoplasma gondii), Q9XZH7 (protein)
chain: MRASLPVHLVVCTQLSAVWFGVAKAHGGHRLEPHVPGFLQGFTDITPAGDDVSANVTSSEPAKLDLSCVHSDNKGSRAPTIGEPVPDVSLEQCAAQCKAVDGCTHFTYNDDSKMCHVKEGKPDLYDLTGGKTASRSCDRSCFEQHVSYEGAPDVMTAMVTSQSADCQAACAADPSCEIFTYNEHDQKCTFKGRGFSAFKERGVLGVTSGPKQFCDEGGKLTQEEMEDQISGCIQLSDVGSMTADLEEPMEADSVGACMERCRCDGRCTHFTFNDNTRMCYLKGDKMQLYSSPGDRTGPKSCDSSCFSNGVSYVDDPATDVETVFEISHPIYCQVICAANPLCTVFQWYASEAKCVVKRKGFYKHRKTGVTGVTVGPREFCDFGGSIRDREEADAVGSDDGLNAEATMANSPDFHDEVECVHTGNIGSKAQTIGEVKRASSLSECRARCQAEKECSHYTYNVKSGLCYPKRGKPQFYKYLGDMTGSRTCDTSCLRRGVDYSQGPEVGKPWYSTLPTDCQVACDAEDACLVFTWDSATSRCYLIGSGFSAHRRNDVDGVVSGPYTFCDNGENLQVLEAKDTE
- glycan array binding signal (z-score) [1]: -0.116
- glycan array binding signal (z-score) [2]: 3.08
- glycan array binding signal (z-score) [3]: 5.93
- glycan array binding signal (z-score) [4]: -0.048
- glycan array binding signal (z-score) [5]: -0.212
- glycan array binding signal (z-score) [6]: 0.101
- glycan array binding signal (z-score) [7]: 3.02
- glycan array binding signal (z-score) [8]: 0.178
- glycan array binding signal (z-score) [9]: -0.156
- glycan array binding signal (z-score) [10]: -0.208
- glycan array binding signal (z-score) [11]: -0.217
- glycan array binding signal (z-score) [12]: -0.22
- glycan array binding signal (z-score) [13]: -0.212
- glycan array binding signal (z-score) [14]: -0.223
- glycan array binding signal (z-score) [15]: -0.206
- glycan array binding signal (z-score) [16]: -0.173
- glycan array binding signal (z-score) [17]: 0.739
- glycan array binding signal (z-score) [18]: 4.31
- glycan array binding signal (z-score) [19]: -0.175
- glycan array binding signal (z-score) [20]: -0.23
- glycan array binding signal (z-score) [21]: 3.21
- glycan array binding signal (z-score) [22]: 3.96
- glycan array binding signal (z-score) [23]: -0.206
- glycan array binding signal (z-score) [24]: 5.04
- glycan array binding signal (z-score) [25]: -0.198
- glycan array binding signal (z-score) [26]: -0.2
- glycan array binding signal (z-score) [27]: 4.68
- glycan array binding signal (z-score) [28]: -0.219
- glycan array binding signal (z-score) [29]: -0.2
- glycan array binding signal (z-score) [30]: -0.208
